The supplement of paper PMC6531468
This is one part of the list. Read counts after selection give these values, which scatter widely. Each score is taken over the longer molecules that contain the sequence shown.

Tested on: IMP3 KH1-4
Assay: 6-mer SELEX enrichment z-score vs GST control; IMP3 is the RNA-binding protein IGF2BP3; higher = more enriched by binding
Settings: construct: KH1-4 (164-579); SELEX round: R4
Procedure: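 SELEX-seq with GST-tagged IMP3 KH1-4 (Pro164-Lys579) and an N40 RNA pool, round 4. 6-mer z-score of sequence-tag enrichment normalised to the corresponding GST SELEX round; RNA k-mers written as DNA (T for U).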

Chain of IMP3 KH1-4 (chain, as listed by the source): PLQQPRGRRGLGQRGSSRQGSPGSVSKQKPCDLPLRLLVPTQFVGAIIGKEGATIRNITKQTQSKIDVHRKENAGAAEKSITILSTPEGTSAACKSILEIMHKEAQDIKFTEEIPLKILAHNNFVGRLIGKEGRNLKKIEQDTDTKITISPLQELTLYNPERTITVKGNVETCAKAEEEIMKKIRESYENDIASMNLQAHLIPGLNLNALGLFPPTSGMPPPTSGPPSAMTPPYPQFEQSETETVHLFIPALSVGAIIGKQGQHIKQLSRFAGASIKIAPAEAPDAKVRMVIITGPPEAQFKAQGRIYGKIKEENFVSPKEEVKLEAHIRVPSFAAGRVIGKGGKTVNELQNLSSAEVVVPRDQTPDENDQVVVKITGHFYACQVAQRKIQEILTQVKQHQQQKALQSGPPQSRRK

| Sequence | 6-mer SELEX enrichment z-score |
| --- | --- |
| GTTGAC | -0.881 |
| CCTGGA | -0.745 |
| TCCAGT | 0.452 |
| TCTGAG | -0.9 |
| AGCCGC | 0.141 |
| GTTAGT | 0.169 |
| TTTTGG | -0.127 |
| GCCCTA | -0.791 |
| GGAATA | 0.9 |
| TTATCC | -0.03 |
| TGGCAG | 0.699 |
| TGACCC | -1.18 |
| TATAAG | 0.947 |
| CTTATG | 0.333 |
| GCTTTA | 0.392 |
| GGGCGA | -0.871 |
| GTTGTG | -0.052 |
| TCTCTA | 0.174 |
| GAATCC | -0.785 |
| CGGATC | -0.002 |

| Sequence | 6-mer SELEX enrichment z-score |
| --- | --- |
| CCGGAA | -0.479 |
| CCACGT | -0.821 |
| GCAAGT | 0.166 |
| TTCTGA | 0.315 |
| GCCAAG | -0.772 |
| TCAAGA | -0.65 |
| ATTCAT | 2.02 |
| ACATAG | 1.28 |
| CAGGGA | 0.826 |
| TGCCAC | 0.09 |
| CATGAT | 1.5 |
| AACCCC | -1.17 |
| GTGTTC | -0.081 |
| AGGCCC | -0.379 |
| TGTCTT | -0.128 |
| CCTTTC | 0.479 |
| AGACAT | 0.532 |
| CGACCA | -0.821 |
| CACTGC | 0.672 |
| AAGTGC | -0.266 |
